One assay relates to HSkMC. Briefly: cytotoxicity call (relative viability < 0.9). The following applies: 10 µM.
The next assay relates to HepG2. Briefly: cytotoxicity call (relative viability < 0.9). To be noted: 10 µM.
A further assay concerns S. aureus RN4220. Put plainly: growth inhibition call (relative growth <= 0.2). The following applies: 50 µM.

The other results are listed elsewhere or left out.

On to `C[C@H]1CCCCO[C@H](CN(C)C(=O)Nc2ccc(F)cc2)[C@@H](C)CN([C@@H](C)CO)C(=O)c2cc(NC(=O)Nc3cccc4ccccc34)ccc2O1`, for which the cytotoxicity call in the assay on HSkMC and in the assay on HepG2 was “inactive” each time. In addition, the growth inhibition call with S. aureus RN4220 is “inactive”.

On to `COc1cccc(S(=O)(=O)Nc2ccc3c(c2)[C@H]2C[C@H](CC(=O)NCc4cccc(F)c4)O[C@H](CO)[C@H]2O3)c1`, for which the cytotoxicity call in the assay with HSkMC and in the assay with HepG2 was “inactive” in each case. Also, the growth inhibition call in the assay on S. aureus RN4220 is “inactive”.

On to `CC(C)NC(=O)N(C)C[C@H]1Oc2ccc(NC(=O)c3ccncc3)cc2CC(=O)N([C@H](C)CO)C[C@H]1C`, for which the cytotoxicity call in the assay on HSkMC and with HepG2 was “inactive” throughout. In the assay on S. aureus RN4220, the growth inhibition call is “inactive”.

For the compound `OC[C@H]1O[C@@H](n2ncc3c(O)ncnc32)[C@H](O)[C@@H]1O`, the cytotoxicity call in the assay on HSkMC and in the assay on HepG2 was “inactive” each time. The growth inhibition call in the assay on S. aureus RN4220 was “inactive”.

Take `CC(C)(N)c1cc(C(=O)N[C@@H]2CCc3ccc(Oc4ccnc5c4CCC(=O)N5)cc3C2)cc(C(F)(F)F)c1`: the cytotoxicity call with HSkMC is “inactive”. In the assay on HepG2, the cytotoxicity call is “active”. For the same compound, the growth inhibition call with S. aureus RN4220 was “inactive”.

As for `CC(=O)OC1(C(C)=O)CCC2C3C=C(Cl)C4=CC(=O)CCC4(C)C3CCC21C` (stereo not drawn), the cytotoxicity call with HSkMC and in the assay on HepG2 was “inactive” each time. Further, the growth inhibition call with S. aureus RN4220 is “inactive”.

On to `Cc1ccc2ncc(-c3ccc4cc(C)ccc4n3)cc2c1`, for which the cytotoxicity call in the assay on HSkMC (human skeletal muscle cells) and with HepG2 was “inactive” throughout. For the same compound, the growth inhibition call in the assay on S. aureus RN4220 is “inactive”.

As to `CC(=O)c1cc2ccccc2s1`, the cytotoxicity call with HSkMC and with HepG2 was “inactive” throughout. Besides, in the assay on S. aureus RN4220, the growth inhibition call is “inactive”.

`C[C@@H]1CN([C@@H](C)CO)C(=O)c2cc(NC(=O)C3CC3)ccc2O[C@@H]1CN(C)Cc1ccc(C(=O)O)cc1`: the cytotoxicity call with HSkMC and in the assay on HepG2 was “inactive” in each case. The growth inhibition call in the assay on S. aureus RN4220 is “inactive”.

For `C[C@H](CO)N1C[C@H](C)[C@H](CN(C)CC2CC2)Oc2ccc(NS(=O)(=O)c3cn(C)cn3)cc2C1=O`, the cytotoxicity call with HSkMC and in the assay with HepG2 was “inactive” throughout. The growth inhibition call in the assay with S. aureus RN4220 is “inactive”.

Regarding `COc1ccc(S(=O)(=O)N(C)C[C@@H]2OCCCC[C@@H](C)Oc3ccc(NS(C)(=O)=O)cc3C(=O)N([C@H](C)CO)C[C@H]2C)cc1`, the cytotoxicity call in the assay with HSkMC and with HepG2 was “inactive” throughout. In addition, in the assay on S. aureus RN4220, the growth inhibition call is “inactive”.

Values taken from the antibiotic and cytotoxicity screens of Wong et al. (2023).
